# Reference: PubChem BioAssay AID1476 (National Center for Advancing Translational Sciences (NCATS), 2009)
# Where “and” joins values, the source holds several entries; their conditions need not be identical. Equal values may be shown once. The campaign covered roughly 200,000 compounds. About 4,500 (2.2%) were called active. Inconclusive means that the source gave no clear call. Such entries were picked first, then a sample of the others. The call rests on the fitted dose curve; in most records, active means well fitted inhibition curve with a large enough effect; inconclusive means small, poorly fitted or top-dose-only effect, or effect the other way; inactive means flat fitted curve, though single readings scatter. A potency beside an inconclusive call is a rough fit, not a confirmed value.
# Biological target: Cruzipain (Trypanosoma cruzi) (UniProt P25779)
# Test: qHTS Assay for Promiscuous and Specific Inhibitors of Cruzain (without detergent); further: nearly all actives have a fitted effect of over 40% in size;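 on max response, negative = inhibition: plate controls were enzyme without inhibitor for no effect and buffer without enzyme for full effect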
# Details: purified cruzain, Z-FR-AMC fluorescence, no detergent
# Procedure, shortened: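 Detergent-free condition (0.00005% Triton X-100) in acetate buffer pH 5.5 with DTT. 1.5 nM enzyme and compound were pre-mixed 15 min, then 2 uM Z-FR-AMC substrate added; reaction progress from fluorescence change between first and third reads (60 s).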
# Potency means the concentration at half of the fitted maximal effect; tags describe the fitted curve by direction and shape.
# Chain of UniProt P25779 (P25779 whole entry, looked up): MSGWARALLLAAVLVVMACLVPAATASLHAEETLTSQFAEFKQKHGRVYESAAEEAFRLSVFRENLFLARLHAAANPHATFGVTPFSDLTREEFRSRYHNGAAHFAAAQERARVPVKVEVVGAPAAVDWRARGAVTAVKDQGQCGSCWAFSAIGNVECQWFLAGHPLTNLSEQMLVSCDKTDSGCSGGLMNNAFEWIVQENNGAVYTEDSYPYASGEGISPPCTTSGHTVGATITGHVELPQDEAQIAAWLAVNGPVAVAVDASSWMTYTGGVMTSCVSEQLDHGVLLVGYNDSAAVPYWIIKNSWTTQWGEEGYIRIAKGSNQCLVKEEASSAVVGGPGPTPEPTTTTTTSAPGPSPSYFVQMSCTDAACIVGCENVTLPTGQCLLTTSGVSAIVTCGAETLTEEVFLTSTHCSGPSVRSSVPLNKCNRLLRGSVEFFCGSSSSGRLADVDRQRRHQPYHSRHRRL
SMILES,Potency,"max response, negative = inhibition"
C=CCSc1nnc2c(n1)OC(c1c(C)[nH]n(-c3ccccc3)c1=O)Nc1ccccc1-2 (stereo not drawn),"inconclusive: 39.8 µM [activator, single point]",
COc1ccc(-c2cc(C(F)(F)F)nc(NC3CCCC3)n2)cc1OC,"inconclusive: 39.8 µM [activator, single point]",
CCOC(=O)c1cccc(NC(=O)c2cnc(N3CCCCC3)c3ccccc23)c1,"inconclusive: 5.01 µM [inhibitor, partial curve]",
Cn1nc(-c2ccc(Cl)cc2)c2cc(C(=O)N3CCOCC3)sc21,"inconclusive: 39.8 µM [activator, single point]",
O=C(NNS(=O)(=O)c1ccccc1)c1cc2cc3ccccc3nc2s1,,inactive: -6.61%
C=C(C)Cn1c(SCC(=O)Nc2cccc(Cl)c2)nc2sc3c(c2c1=O)CCCC3,"inconclusive: 3.98 µM [activator, partial curve]",
COc1ccc(NC(=O)COc2ccc(N(C)S(=O)(=O)c3ccc(C)cc3)cc2)cc1,,inactive: 15.2%
O=C(c1ccc2c(=O)n(Cc3ccc4c(c3)OCO4)c(=S)[nH]c2c1)N1CCC2(CC1)OCCO2,"inconclusive: 39.8 µM [activator, single point]",
Cc1ccc(S(=O)(=O)Nc2ccc3c(c2)c2c(n3S(=O)(=O)c3ccc(C)cc3)CCCC2=O)cc1,active: 7.94 µM,
Cc1ccc(S(=O)(=O)Oc2ccc(/C=C3/N=C(c4ccccc4)OC3=O)cc2)cc1,"inconclusive: 31.6 µM [inhibitor, single point]",
CCCCCCC1CC(C)(C(=O)CNc2nncs2)OC1=O (stereo not drawn),,inactive: 3.74%
Cc1ccc(S(=O)(=O)N(CCCN2CCCC2=O)Cc2cc3c(C)ccc(C)c3[nH]c2=O)cc1,"inconclusive: 25.1 µM [activator, partial curve]",
N#C/C(=C\c1ccc(OC(=O)c2ccc(Br)s2)cc1)c1nc2ccccc2[nH]1,active: 5.01 µM,
Cc1ccc(C)c(CN2C(=O)c3ccccc3Sc3ccc(C(=O)NCCCOC(C)C)cc32)c1,"inconclusive: 25.1 µM [activator, single point]",
Cc1c(N)c(C(C)(C)C)cc(C(C)(C)C)c1[N+](=O)[O-],,inactive: -3.04%
COc1ccc(CNC(=O)c2cc(Nc3ccc(OC)cc3OC)nc3ccccc23)cc1,"inconclusive: 39.8 µM [inhibitor, single point]",
O=C(Nc1cccc(C(F)(F)F)c1)c1cnc2n(c1=O)CCS2,"inconclusive: 31.6 µM [inhibitor, single point]",
CCn1c(SCC(=O)Nc2cccc(Cl)c2)nnc1-c1nonc1NC(C)=O,"inconclusive: 39.8 µM [activator, single point]",
O=c1oc2cc(OCc3ccc([N+](=O)[O-])cc3)ccc2c2c1CCCC2,active: 12.6 µM,
O=C(N/N=C/c1cccs1)c1cc(-c2cccc3ccccc23)n[nH]1,"inconclusive: 39.8 µM [inhibitor, single point]",
CC1CCc2cccc3c2N1c1cc(C#N)c(C#N)cc1O3 (stereo not drawn),"inconclusive: 31.6 µM [inhibitor, single point]",

SMILES,Potency,"max response, negative = inhibition"
C[C@@H](C(=O)Nc1ccc2ccccc2c1)[C@H]1C[C@]1(C)[C@H](NS(=O)(=O)c1ccccc1)c1ccccc1,"inconclusive: 3.16 µM [inhibitor, single point] and inconclusive: 39.8 µM [inhibitor, single point]",
CC1(C)C2C[C@@H](O)[C@]3(C)C(CC[C@@]4(C)[C@H](c5ccoc5)C[C@H]5O[C@]543)[C@@]2(C)[C@@H](O)C[C@H]1O (stereo partly drawn),"inconclusive: 39.8 µM [activator, single point]",
S=c1nccc(-c2cc(Cl)sc2Cl)[nH]1,active: 12.6 µM,
Clc1ccc(CN2CCc3nc(Nc4ccc5c(c4)OCCO5)ncc3C2)cc1,"inconclusive: 25.1 µM [inhibitor, single point]",
COc1ccccc1CNc1nc(-c2ccco2)nn1S(=O)(=O)c1ccc(C)cc1,,inactive: 3.75%
COC(=O)c1sc2ccccc2c1-n1cccc1C(=O)C(=O)Nc1ccccc1,"inconclusive: 31.6 µM [inhibitor, single point]",
CCOC(=O)N1CCC(N(CCOC)C(=O)Nc2ccc(Cl)c(Cl)c2)CC1,"inconclusive: 31.6 µM [activator, single point]",
COc1ccc(Cl)cc1NC(=O)CN1CCC(n2nnc3cc(C)ccc32)CC1,"inconclusive: 20 µM [activator, partial curve]",
COC(=O)c1cc(=O)n(CCc2ccc(OC)c(OC)c2)c(=Nc2ccc(F)c(Cl)c2)s1,"inconclusive: 12.6 µM [activator, partial curve]",
Cc1ccccc1CCNCc1c(C(=O)O)c(C)n(Cc2c(F)cccc2Cl)c1C,,inactive: 0.499%
O=[N+]([O-])c1cc(/C=N/O)ccc1SCc1ccccc1,"inconclusive: 39.8 µM [inhibitor, single point]",
C=CCn1c(-c2cccc(OC)c2)nc2nc3ccccc3nc21,,inactive: 0.721%
O=C(c1ccc(Nc2cccc(C(F)(F)F)c2)nc1)N1CCCC1,"inconclusive: 39.8 µM [activator, single point]",
O=C(COC(=O)C1Cc2ccccc2CN1C(=O)c1ccccc1Cl)Nc1ccc(N2CCOCC2)cc1 (stereo not drawn),"inconclusive: 39.8 µM [activator, single point]",
COc1ccccc1/C=C/c1nc(C#N)c(NC(C)c2ccccc2)o1 (stereo not drawn),,inactive: -27.6%
CN1C[C@@H](CO)C=C2c3cccc4[nH]cc(c34)CC21 (stereo partly drawn),active: 39.8 µM,
CCCCC1CCC(C(=O)Nc2ccccc2)CC1 (stereo not drawn),"inconclusive: 39.8 µM [inhibitor, single point]",
CC(=O)Nc1ccc(S(=O)(=O)Nc2nc3ccccc3nc2N2CCCCCC2)cc1,"inconclusive: 39.8 µM [activator, single point]",
c1ccc2c(c1)CC(N1CCN(c3cccc4c3OCCO4)CC1)C2,,inactive: -4.3%
COC(=O)C(Cc1c[nH]c2ccccc12)NC(=O)c1cc(-c2ccc(OC)c(OC)c2)oc1C (stereo not drawn),"inconclusive: 39.8 µM [activator, single point]",
O=C(Nc1cccc(C(=O)N2CCN(c3ccc(F)cc3)CC2)c1)c1nsc2ccccc12,"inconclusive: 39.8 µM [inhibitor, single point]",

SMILES,Potency,"max response, negative = inhibition"
CCCCSCCCNC(=O)c1cc(-c2cccnc2)nc2ccc(S(=O)(=O)N3CCC(C)CC3)cc12,,inactive: 0.56%
COc1cc(CNc2cccc(C(=O)O)c2)cc(Br)c1OCC(=O)NC(C)(C)C,"inconclusive: 39.8 µM [activator, single point]",
ClC(Cl)C(Cl)Cl,,inactive: -2.5%
CCOC(=O)c1c(NC(=S)NC(=O)c2ccco2)sc2c1CCCC2,active: 12.6 µM,
CC(=O)N1CCc2cc(S(=O)(=O)NC(Cc3ccccc3)C(=O)Nc3cc(C)ccn3)ccc21 (stereo not drawn),"inconclusive: 25.1 µM [activator, single point]",
O=C(Cc1ccccc1)Nc1nc(=O)c2ccccc2s1,"inconclusive: 39.8 µM [inhibitor, single point]",
CC1CN(S(=O)(=O)c2ccc(NC(=O)CCCN3C(=O)c4ccccc4C3=O)cc2)CC(C)O1 (stereo not drawn),"inconclusive: 25.1 µM [activator, single point]",
CCOC(=O)c1c(NC(=O)/C=C/c2ccc(OC)cc2)sc2c1CCC(C)C2 (stereo not drawn),,inactive: -18.7%
O=C(NN=C1c2ccccc2-c2ccccc21)c1ccccn1,"inconclusive: 31.6 µM [inhibitor, single point]",
COc1ccc(Cl)cc1NC(=O)c1nc(S(C)(=O)=O)ncc1N(Cc1ccc(C)cc1)Cc1ccco1,"inconclusive: 3.16 µM [inhibitor, partial curve]",
Cc1ccc(C)c(NC(=O)Cn2c(=O)oc3cc(S(=O)(=O)NCc4ccccc4)ccc32)c1,"inconclusive: 31.6 µM [activator, single point]",
Cc1cc(C)cc(C(=O)Nc2nnc(SCC(=O)N3CCCc4ccccc43)s2)c1,"inconclusive: 39.8 µM [inhibitor, single point]",
O=C(Nc1nc(-c2nc3ccccc3s2)cs1)C1COc2ccccc2O1 (stereo not drawn),"inconclusive: 39.8 µM [inhibitor, single point]",
COC(=O)c1ccc(NC(=O)CSc2nc3ccccc3c(=O)[nH]2)cc1,"inconclusive: 39.8 µM [inhibitor, single point]",
O=C(Cc1cccs1)N1CCC(c2nc3c(nnn3Cc3ccccc3)c(=O)[nH]2)CC1,"inconclusive: 31.6 µM [activator, single point]",
CCN(CC)S(=O)(=O)c1cnccc1N1CCN(c2cccc(Cl)c2)CC1,"inconclusive: 31.6 µM [activator, single point]",
CCc1ccc2oc(C(=O)Nc3nc(-c4ccccc4)ns3)c(C)c2c1,,inactive: 4.4%
Cc1cc(C)c(NC(=O)c2oc3ccccc3c2COc2ccccc2)c(C)c1,"inconclusive: 31.6 µM [inhibitor, single point]",
Cc1cccc(CSCCNC(=O)CN(c2ccccc2)S(=O)(=O)N(C)C)c1,"inconclusive: 20 µM [activator, partial curve, poor fit]",
COc1ccc(OC)c(NC(=O)CCc2c(C)nc3c(-c4ccccc4)c(C)nn3c2C)c1,"inconclusive: 39.8 µM [activator, single point]",
CCc1cccc(NC(=O)c2ccc3c(=O)n4nc(Nc5ccccc5OC)sc4nc3c2)c1,,inactive: 1.25%
